Results as given in patent publication EP4491631A1 (Anaveon AG, dated 2025).

B1: FJC828 (other)
heavy: EVQLVQSGAEVKKPGESLKISCKGSGYAFTNYLIEWVRQMPGKGLEWMGVINPGSGGTNYNEKFKGQVTISADKSISTAYLQWSSLKASDTAMYYCARWRGEGYYAYFDVWGQGTTVTVSSASTKGPSVFPLAPSSKSTSGGTAALGCLVKDYFPEPVTVSWNSGALTSGVHTFPAVLQSSGLYSLSSVVTVPSSSLGTQTYICNVNHKPSNTKVDKRV[gap - human IgG1 Fc with changes]
light: AIRLTQSPSSFSASTGDRVTITCKASQSVDYGGGGNFHLRPRDLISNINVIVLELKGSETTFMCEYADETATIVEFLNRWITFSQSIISTLTPTSSSTKKTQLQLEHLLLDLQMILNGINNYKNPKLTRMLTFKFYMPKKATELKHLQCLEEELKPLEEVLNLAQSKGGGGSDSYMNWYQQKPGKAPKLLIYAASNLESGVPSRFSGSGSGTDFTLTISSLQSEDFATYYCQQSNEDPYTFGGGTKVEIKRTVAAPSVFIFPPSDEQLKSGTASVVCLLNNFYPREAKVQWKVDNALQSGNSQESVTEQDSKDSTYSLSSTLTLSKADYEKHKVYACEVTHQGLSSPVTKSFNRGEC
B2: PGO345 (other)
heavy: EVQLVQSGAEVKKPGESLKISCKGSGYAFTNYLIEWVRQMPGKGLEWMGVINPGSGGTNYNEKFKGQVTISADKSISTAYLQWSSLKASDTAMYYCARWRGEGYYAYFDVWGQGTTVTVSSASTKGPSVFPLAPSSKSTSGGTAALGCLVKDYFPEPVTVSWNSGALTSGVHTFPAVLQSSGLYSLSSVVTVPSSSLGTQTYICNVNHKPSNTKVDKRV[gap - human IgG1 Fc with changes]
light: AIRLTQSPSSFSASTGDRVTITCKASQSVDYGGGGSGNFHLRPRDLISNINVIVLELKGSETTFMCEYADETATIVEFLNRWITFSQSIISTLTPTSSSTKKTQLQLEHLLLDLQMILNGINNYKNPKLTRMLTFKFYMPKKATELKHLQCLEEELKPLEEVLNLAQSKGGGGSGGDSYMNWYQQKPGKAPKLLIYAASNLESGVPSRFSGSGSGTDFTLTISSLQSEDFATYYCQQSNEDPYTFGGGTKVEIKRTVAAPSVFIFPPSDEQLKSGTASVVCLLNNFYPREAKVQWKVDNALQSGNSQESVTEQDSKDSTYSLSSTLTLSKADYEKHKVYACEVTHQGLSSPVTKSFNRGEC
B3: DRV470 (other)
heavy: EVQLVQSGAEVKKPGESLKISCKGSGYAFTNYLIEWVRQMPGKGLEWMGVINPGSGGTNYNEKFKGQVTISADKSISTAYLQWSSLKASDTAMYYCARWRGEGYYAYFDVWGQGTTVTVSSASTKGPSVFPLAPSSKSTSGGTAALGCLVKDYFPEPVTVSWNSGALTSGVHTFPAVLQSSGLYSLSSVVTVPSSSLGTQTYICNVNHKPSNTKVDKRV[gap - human IgG1 Fc with changes]
light: AIRLTQSPSSFSASTGDRVTITCKASQSVDYGGGGSGGGGSGGGNFHLRPRDLISNINVIVLELKGSETTFMCEYADETATIVEFLNRWITFSQSIISTLTPTSSSTKKTQLQLEHLLLDLQMILNGINNYKNPKLTRMLTFKFYMPKKATELKHLQCLEEELKPLEEVLNLAQSKGGGGSGGGGSGGGGDSYMNWYQQKPGKAPKLLIYAASNLESGVPSRFSGSGSGTDFTLTISSLQSEDFATYYCQQSNEDPYTFGGGTKVEIKRTVAAPSVFIFPPSDEQLKSGTASVVCLLNNFYPREAKVQWKVDNALQSGNSQESVTEQDSKDSTYSLSSTLTLSKADYEKHKVYACEVTHQGLSSPVTKSFNRGEC
B4: XUB802 (other)
heavy: EVQLVQSGAEVKKPGESLKISCKGSGYAFTNYLIEWVRQMPGKGLEWMGVINPGSGGTNYNEKFKGQVTISADKSISTAYLQWSSLKASDTAMYYCARWRGEGYYAYFDVWGQGTTVTVSSASTKGPSVFPLAPSSKSTSGGTAALGCLVKDYFPEPVTVSWNSGALTSGVHTFPAVLQSSGLYSLSSVVTVPSSSLGTQTYICNVNHKPSNTKVDKRV[gap - human IgG1 Fc with changes]
light: AIRLTQSPSSFSASTGDRVTITCKASQSVDYGGGGSGGGGSGGGGSGGGGNFHLRPRDLISNINVIVLELKGSETTFMCEYADETATIVEFLNRWITFSQSIISTLTPTSSSTKKTQLQLEHLLLDLQMILNGINNYKNPKLTRMLTFKFYMPKKATELKHLQCLEEELKPLEEVLNLAQSKGGGGSGGGGSGGGGSGGGGSDSYMNWYQQKPGKAPKLLIYAASNLESGVPSRFSGSGSGTDFTLTISSLQSEDFATYYCQQSNEDPYTFGGGTKVEIKRTVAAPSVFIFPPSDEQLKSGTASVVCLLNNFYPREAKVQWKVDNALQSGNSQESVTEQDSKDSTYSLSSTLTLSKADYEKHKVYACEVTHQGLSSPVTKSFNRGEC
B5: EPK959 (other)
heavy: QVQLVESGGGVVQPGRSLRLSCAASGYTFSSYLIEWVRQAPGKGLEWVAVINPGSGGTNYADSVKGRFTISADKSKNTAYLQMNSLRAEDTAVYYCARWRGDGYYAYFDVWGQGTTVTVSSASTKGPSVFPLAPSSKSTSGGTAALGCLVKDYFPEPVTVSWNSGALTSGVHTFPAVLQSSGLYSLSSVVTVPSSSLGTQTYICNVNHKPSNTKVDKRV[gap - human IgG1 Fc with changes]
light: EIVLTQSPATLSVSPGERATLSCRASQSVSYNFHLRPRDLISNINVIVLELKGSETTFMCEYADETATIVEFLNRWITFSQSIISTLTPTSSSTKKTQLQLEHLLLDLQMILNGINNYKNPKLTRMLTFKFYMPKKATELKHLQCLEEELKPLEEVLNLAQSKGDSYMNWYQQKPGQAPRLLIYAASNLASGIPARFSGSGSGTEFTLTISSLQSEDAAVYYCQQSNEDPYTFGGGTKVEIKRTVAAPSVFIFPPSDEQLKSGTASVVCLLNNFYPREAKVQWKVDNALQSGNSQESVTEQDSKDSTYSLSSTLTLSKADYEKHKVYACEVTHQGLSSPVTKSFNRGEC
B6: GYG794 (other)
heavy: QVQLVESGGGVVQPGRSLRLSCAASGYTFSSYLIEWVRQAPGKGLEWVAVINPGSGGTNYADSVKGRFTISADKSKNTAYLQMNSLRAEDTAVYYCARWRGDGYYAYFDVWGQGTTVTVSSASTKGPSVFPLAPSSKSTSGGTAALGCLVKDYFPEPVTVSWNSGALTSGVHTFPAVLQSSGLYSLSSVVTVPSSSLGTQTYICNVNHKPSNTKVDKRV[gap - human IgG1 Fc with changes]
light: EIVLTQSPATLSVSPGERATLSCRASQSVSYGGNFHLRPRDLISNINVIVLELKGSETTFMCEYADETATIVEFLNRWITFSQSIISTLTPTSSSTKKTQLQLEHLLLDLQMILNGINNYKNPKLTRMLTFKFYMPKKATELKHLQCLEEELKPLEEVLNLAQSKGGGDSYMNWYQQKPGQAPRLLIYAASNLASGIPARFSGSGSGTEFTLTISSLQSEDAAVYYCQQSNEDPYTFGGGTKVEIKRTVAAPSVFIFPPSDEQLKSGTASVVCLLNNFYPREAKVQWKVDNALQSGNSQESVTEQDSKDSTYSLSSTLTLSKADYEKHKVYACEVTHQGLSSPVTKSFNRGEC
B7: DRO069 (other)
heavy: QVQLVESGGGVVQPGRSLRLSCAASGYTFSSYLIEWVRQAPGKGLEWVAVINPGSGGTNYADSVKGRFTISADKSKNTAYLQMNSLRAEDTAVYYCARWRGDGYYAYFDVWGQGTTVTVSSASTKGPSVFPLAPSSKSTSGGTAALGCLVKDYFPEPVTVSWNSGALTSGVHTFPAVLQSSGLYSLSSVVTVPSSSLGTQTYICNVNHKPSNTKVDKRV[gap - human IgG1 Fc with changes]
light: EIVLTQSPATLSVSPGERATLSCRASQSVSYGGGNFHLRPRDLISNINVIVLELKGSETTFMCEYADETATIVEFLNRWITFSQSIISTLTPTSSSTKKTQLQLEHLLLDLQMILNGINNYKNPKLTRMLTFKFYMPKKATELKHLQCLEEELKPLEEVLNLAQSKGGGGDSYMNWYQQKPGQAPRLLIYAASNLASGIPARFSGSGSGTEFTLTISSLQSEDAAVYYCQQSNEDPYTFGGGTKVEIKRTVAAPSVFIFPPSDEQLKSGTASVVCLLNNFYPREAKVQWKVDNALQSGNSQESVTEQDSKDSTYSLSSTLTLSKADYEKHKVYACEVTHQGLSSPVTKSFNRGEC
B8: ECV200 (other)
heavy: QVQLVESGGGVVQPGRSLRLSCAASGYTFSSYLIEWVRQAPGKGLEWVAVINPGSGGTNYADSVKGRFTISADKSKNTAYLQMNSLRAEDTAVYYCARWRGDGYYAYFDVWGQGTTVTVSSASTKGPSVFPLAPSSKSTSGGTAALGCLVKDYFPEPVTVSWNSGALTSGVHTFPAVLQSSGLYSLSSVVTVPSSSLGTQTYICNVNHKPSNTKVDKRV[gap - human IgG1 Fc with changes]
light: EIVLTQSPATLSVSPGERATLSCRASQSVSYGGGGSGNFHLRPRDLISNINVIVLELKGSETTFMCEYADETATIVEFLNRWITFSQSIISTLTPTSSSTKKTQLQLEHLLLDLQMILNGINNYKNPKLTRMLTFKFYMPKKATELKHLQCLEEELKPLEEVLNLAQSKGGGGSGGDSYMNWYQQKPGQAPRLLIYAASNLASGIPARFSGSGSGTEFTLTISSLQSEDAAVYYCQQSNEDPYTFGGGTKVEIKRTVAAPSVFIFPPSDEQLKSGTASVVCLLNNFYPREAKVQWKVDNALQSGNSQESVTEQDSKDSTYSLSSTLTLSKADYEKHKVYACEVTHQGLSSPVTKSFNRGEC

Target: T1, IL-2R on murine splenocytes (mouse, UniProt P16297 27-539; P34902 23-369)
T1 sequence (looked up) 1: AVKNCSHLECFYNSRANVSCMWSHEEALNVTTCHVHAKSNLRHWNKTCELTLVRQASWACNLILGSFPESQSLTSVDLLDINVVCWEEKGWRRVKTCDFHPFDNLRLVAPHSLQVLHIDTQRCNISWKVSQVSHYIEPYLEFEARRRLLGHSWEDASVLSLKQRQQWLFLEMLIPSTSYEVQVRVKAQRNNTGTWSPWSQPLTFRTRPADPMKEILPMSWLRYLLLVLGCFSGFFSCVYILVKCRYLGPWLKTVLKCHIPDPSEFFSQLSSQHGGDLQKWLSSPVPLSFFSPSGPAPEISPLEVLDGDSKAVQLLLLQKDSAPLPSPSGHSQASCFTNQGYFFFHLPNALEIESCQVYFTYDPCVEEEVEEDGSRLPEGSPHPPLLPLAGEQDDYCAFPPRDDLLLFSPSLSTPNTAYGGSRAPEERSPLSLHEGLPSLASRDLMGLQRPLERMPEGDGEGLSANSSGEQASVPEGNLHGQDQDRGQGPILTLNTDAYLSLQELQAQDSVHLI
T1 sequence (looked up) 2: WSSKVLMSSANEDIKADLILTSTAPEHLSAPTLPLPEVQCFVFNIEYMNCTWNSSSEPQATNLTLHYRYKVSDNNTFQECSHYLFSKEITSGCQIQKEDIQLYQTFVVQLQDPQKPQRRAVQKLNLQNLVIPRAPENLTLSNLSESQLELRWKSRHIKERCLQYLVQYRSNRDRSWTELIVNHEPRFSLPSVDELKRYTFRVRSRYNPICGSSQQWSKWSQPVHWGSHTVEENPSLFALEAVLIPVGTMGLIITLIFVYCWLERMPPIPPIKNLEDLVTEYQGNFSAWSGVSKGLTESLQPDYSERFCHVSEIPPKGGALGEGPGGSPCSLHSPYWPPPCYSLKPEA
Test: cell-based or functional assay

Binder | EC50 CD8 cells (pSTAT5) [nM] | EC50 NK cells (pSTAT5) [nM] | EC50 Treg cells (pSTAT5) [nM]
B1 | 5.8 | 1.9 | 8.4
B2 | 6.6 | 2.3 | 7.6
B3 | 7.9 | 2.4 | 10.3
B4 | 17.1 | 5.8 | 12.1
B5 | 16 | 1.9 | 16
B6 | 18.6 | 1.5 | 4.8
B7 | 6.8 | 0.9 | 6.6
B8 | 6.9 | 0.9 | 3.7
